Structures can show the parent of a compound that is named as a salt. In all, about 1,900 compounds were measured (“cell viability of compound + 1 nM pemigatinib relative to pemigatinib-only (DMSO) wells”: median about 0.95, lowest 2% from about 0.22 on). The list shows a part of the results.
These compounds were tested on PDC-DUC18828 (assay: cell viability of compound + 1 nM pemigatinib relative to pemigatinib-only (DMSO) wells (fraction); PDC-DUC18828 is a patient-derived cholangiocarcinoma cell line; higher = less growth inhibition). Conditions: first compound 1 µM; pemigatinib concentration 1 nM; 72 h.
Method: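 Selleck Bioactive library screen in the patient-derived FGFR2 fusion-positive ICC cell line PDC-DUC18828 (500 cells/well). Each compound was tested at 1 uM with 1 nM pemigatinib, in triplicate, for 72 h. Viability was read by CellTiter-Glo and normalised to plate DMSO controls. Value is the paper's averaged normalised viability.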
With `O=C1NCCCc2c1oc1ccc(O)cc21` + CCN1C(=O)N(c2c(F)c(OC)cc(OC)c2F)Cc2cnc3[nH]c(CN4CCOCC4)cc3c21 [pemigatinib] the cell viability was 0.98.
In the case of `COC(=O)Nc1nc2cc([S+]([O-])c3ccccc3)ccc2[nH]1` (centres undefined) [Oxfendazole] + CCN1C(=O)N(c2c(F)c(OC)cc(OC)c2F)Cc2cnc3[nH]c(CN4CCOCC4)cc3c21 [pemigatinib], the cell viability was 0.92.
Work on `Cc1ccc2c(=O)c3cccc(CC(=O)O)c3oc2c1C` [DMXAA (Vadimezan)] + CCN1C(=O)N(c2c(F)c(OC)cc(OC)c2F)Cc2cnc3[nH]c(CN4CCOCC4)cc3c21 [pemigatinib] yielded a cell viability of 1.03.
In the case of `C[C@H]1O[C@@H](Oc2c(-c3cc(O)c(O)c(O)c3)oc3cc(O)cc(O)c3c2=O)[C@@H](O)[C@@H](O)[C@@H]1O` [Myricitrin] + CCN1C(=O)N(c2c(F)c(OC)cc(OC)c2F)Cc2cnc3[nH]c(CN4CCOCC4)cc3c21 [pemigatinib], the cell viability was 0.933.
`C=C1/C(=C\C=C2/CCC[C@]3(C)[C@@H]([C@H](C)/C=C/[C@H](C)C(C)C)CC[C@@H]23)C[C@@H](O)C[C@@H]1O` [Doxercalciferol] + CCN1C(=O)N(c2c(F)c(OC)cc(OC)c2F)Cc2cnc3[nH]c(CN4CCOCC4)cc3c21 [pemigatinib] showed a cell viability of 0.948.
`CCCCN1CCCCC1C(=O)Nc1c(C)cccc1C` (centres undefined) [Bupivacaine HCl] + CCN1C(=O)N(c2c(F)c(OC)cc(OC)c2F)Cc2cnc3[nH]c(CN4CCOCC4)cc3c21 [pemigatinib] gave a cell viability of 0.891.
In the case of `CCOC(=O)c1[nH]c2cc(Cl)ccc2c1C(C(=O)NC(C)(C)C)N(C=O)Cc1ccc(Cl)cc1` (centres undefined) + CCN1C(=O)N(c2c(F)c(OC)cc(OC)c2F)Cc2cnc3[nH]c(CN4CCOCC4)cc3c21 [pemigatinib], the cell viability was 0.933.
With `Cc1cc(Nc2nc(N[C@@H](C)c3ccc(F)cc3)c(C#N)cc2F)n[nH]1` + CCN1C(=O)N(c2c(F)c(OC)cc(OC)c2F)Cc2cnc3[nH]c(CN4CCOCC4)cc3c21 [pemigatinib] the cell viability was 0.411.
In the case of `CCOC(=O)c1c(CSc2ccccc2)n(C)c2cc(Br)c(O)c(CN(C)C)c12` [Arbidol HCl] + CCN1C(=O)N(c2c(F)c(OC)cc(OC)c2F)Cc2cnc3[nH]c(CN4CCOCC4)cc3c21 [pemigatinib], the cell viability was 0.973.
`CCN1CCN(Cc2ccc(-c3cc4c(N[C@H](C)c5ccccc5)ncnc4[nH]3)cc2)CC1` + CCN1C(=O)N(c2c(F)c(OC)cc(OC)c2F)Cc2cnc3[nH]c(CN4CCOCC4)cc3c21 [pemigatinib] showed a cell viability of 0.92.
Compound `Cc1nc(Nc2ncc(C(=O)Nc3c(C)cccc3Cl)s2)cc(N2CCN(CCO)CC2)n1` [Dasatinib] + CCN1C(=O)N(c2c(F)c(OC)cc(OC)c2F)Cc2cnc3[nH]c(CN4CCOCC4)cc3c21 [pemigatinib] has a cell viability of 0.311.
Work on `CC(C(=O)O)c1ccc2c(c1)CC(=O)c1ccccc1S2` (centres undefined) [Zaltoprofen] + CCN1C(=O)N(c2c(F)c(OC)cc(OC)c2F)Cc2cnc3[nH]c(CN4CCOCC4)cc3c21 [pemigatinib] yielded a cell viability of 0.968.
In the case of `Oc1cc2c(cc1O)[C@@H]1c3ccc(O)c(O)c3OC[C@]1(O)C2` [Hematoxylin] + CCN1C(=O)N(c2c(F)c(OC)cc(OC)c2F)Cc2cnc3[nH]c(CN4CCOCC4)cc3c21 [pemigatinib], the cell viability was 0.897.
Compound `COc1ccc(CC2c3cc(OC)c(OC)cc3CC[N+]2(C)CCC(=O)OCCCCCOC(=O)CC[N+]2(C)CCc3cc(OC)c(OC)cc3C2Cc2ccc(OC)c(OC)c2)cc1OC` (centres undefined) [Atracurium Besylate] + CCN1C(=O)N(c2c(F)c(OC)cc(OC)c2F)Cc2cnc3[nH]c(CN4CCOCC4)cc3c21 [pemigatinib] has a cell viability of 0.989.
Compound `CC(=O)[C@H]1CC[C@H]2[C@@H]3CC=C4C[C@@H](O)CC[C@]4(C)[C@H]3CC[C@]12C` [Pregnenolone] + CCN1C(=O)N(c2c(F)c(OC)cc(OC)c2F)Cc2cnc3[nH]c(CN4CCOCC4)cc3c21 [pemigatinib] has a cell viability of 1.
In the case of `Cc1nc(-c2ccc(OCC(C)C)c(C#N)c2)sc1C(=O)O` [Febuxostat] + CCN1C(=O)N(c2c(F)c(OC)cc(OC)c2F)Cc2cnc3[nH]c(CN4CCOCC4)cc3c21 [pemigatinib], the cell viability was 0.996.
`CN(C)CCCN1c2ccccc2Sc2ccc(Cl)cc21` [Chlorpromazine HCl] + CCN1C(=O)N(c2c(F)c(OC)cc(OC)c2F)Cc2cnc3[nH]c(CN4CCOCC4)cc3c21 [pemigatinib] was tested, and the cell viability was 0.935.
In the case of `C[C@H](Nc1ncnc2[nH]cnc12)c1cc2ccc(F)cc2nc1-c1ccccn1` + CCN1C(=O)N(c2c(F)c(OC)cc(OC)c2F)Cc2cnc3[nH]c(CN4CCOCC4)cc3c21 [pemigatinib], the cell viability was 0.858.
Compound `Nc1ccc(C(=O)Nc2cccc(-c3nc(N4CCOCC4)c4oc5ncccc5c4n3)c2)cn1` + CCN1C(=O)N(c2c(F)c(OC)cc(OC)c2F)Cc2cnc3[nH]c(CN4CCOCC4)cc3c21 [pemigatinib] has a cell viability of 0.704.
For `Nc1nc(=S)c2ncn([C@H]3C[C@H](O)[C@@H](CO)O3)c2[nH]1` + CCN1C(=O)N(c2c(F)c(OC)cc(OC)c2F)Cc2cnc3[nH]c(CN4CCOCC4)cc3c21 [pemigatinib], the cell viability was 0.893.
In the case of `O=c1ccc2ccccc2o1` [Coumarin] + CCN1C(=O)N(c2c(F)c(OC)cc(OC)c2F)Cc2cnc3[nH]c(CN4CCOCC4)cc3c21 [pemigatinib], the cell viability was 1.
`Cc1nc(-c2cccnc2)sc1C(=O)Nc1ccccc1-c1cn2c(CN3CCOCC3)csc2n1` + CCN1C(=O)N(c2c(F)c(OC)cc(OC)c2F)Cc2cnc3[nH]c(CN4CCOCC4)cc3c21 [pemigatinib] gave a cell viability of 0.898.
`COc1cc([C@@H]2c3cc4c(cc3[C@@H](O[C@@H]3O[C@@H]5CO[C@@H](c6cccs6)O[C@H]5[C@H](O)[C@H]3O)[C@H]3COC(=O)[C@H]23)OCO4)cc(OC)c1O` [Teniposide] + CCN1C(=O)N(c2c(F)c(OC)cc(OC)c2F)Cc2cnc3[nH]c(CN4CCOCC4)cc3c21 [pemigatinib] gave a cell viability of 0.194.
For `O=C1NC(=O)/C(=C/c2ccc3c(c2)OC(F)(F)O3)S1` + CCN1C(=O)N(c2c(F)c(OC)cc(OC)c2F)Cc2cnc3[nH]c(CN4CCOCC4)cc3c21 [pemigatinib], the cell viability was 1.01.
